Data taken from PubChem BioAssay (NCATS).
This list was built around the results that the source calls inconclusive (neither active nor inactive); the mix of calls is not that of the screen. For some assays here: Potencies beside an inconclusive call are fits to weak or partial responses and may not hold up. The source made the active and inactive calls. Unless noted, calls come from the whole dose curve; as a rule, active = well fitted curve in the direction sought with a large enough effect; inconclusive = small, poorly fitted or top-dose-only effect, or another doubt; inactive = no such curve, though single readings can be large; an effect the other way counts as inactive or inconclusive.

Tests used:
[1] = P-glycoprotein substrates identified in KB-8-5-11 adenocarcinoma cell line, qHTS therapeutic library screen (AID 1346987); note: nearly all actives have a fitted effect of over 65% in size; for activity change, negative = cytotoxicity: % is set by controls: 0 for no effect and ±100 for the full control effect
Method in brief: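 Steps: plate 500 KB-8-5-11 cells/well in DMEM + 10% FCS (colchicine removed); pin compounds in dose-response; incubate 72 h, 37 degree C, 5% CO2; add CellTiter-Glo, 5 min; read luminescence.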

[2] = target: Cytochrome P450 2D6 (Homo sapiens) (UniProt P10635); test: Cytochrome P450 family 2 subfamily D member 6 (CYP2D6) small molecule antagonists: luciferase biochemical (cell-free) qHTS assay (AID 1645840; active = well fitted curve in the direction sought with a large enough effect in the repeat runs; inconclusive = weak or mixed curves; inactive = no such curve, though single readings can be large; an effect the other way counts as inactive or inconclusive; note: nearly all actives have a fitted effect of over 55% in size)
UniProt P10635, sequence (P10635 whole entry, looked up): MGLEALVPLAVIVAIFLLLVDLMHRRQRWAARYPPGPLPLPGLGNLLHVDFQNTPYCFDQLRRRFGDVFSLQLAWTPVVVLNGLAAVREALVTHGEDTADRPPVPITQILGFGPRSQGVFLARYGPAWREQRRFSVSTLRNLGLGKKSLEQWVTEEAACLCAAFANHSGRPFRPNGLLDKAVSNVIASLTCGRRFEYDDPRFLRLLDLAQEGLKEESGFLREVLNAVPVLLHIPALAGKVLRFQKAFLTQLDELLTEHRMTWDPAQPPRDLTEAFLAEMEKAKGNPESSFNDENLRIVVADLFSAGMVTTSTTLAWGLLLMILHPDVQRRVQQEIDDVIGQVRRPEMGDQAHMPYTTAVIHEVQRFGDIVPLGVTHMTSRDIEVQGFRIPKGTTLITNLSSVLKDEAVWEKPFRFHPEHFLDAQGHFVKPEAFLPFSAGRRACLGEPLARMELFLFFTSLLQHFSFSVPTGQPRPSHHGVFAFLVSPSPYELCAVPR
Method in brief: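 P450-Glo luminescent screen: recombinant CYP2D6 enzyme–proluciferin substrate mix preincubated with compound 10 min at room temperature, then NADPH regeneration added for 1 h at room temperature. Detection reagent added for 20 min; luciferin light read as relative luminescence units.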

[3] = target: Cytochrome P450 2C9 (Homo sapiens) (UniProt P11712); test: Cytochrome P450 family 2 subfamily C member 9 (CYP2C9) small molecule antagonists: luciferase biochemical (cell-free) qHTS assay (AID 1645842; active = well fitted curve in the direction sought with a large enough effect in the repeat runs; inconclusive = weak or mixed curves; inactive = no such curve, though single readings can be large; an effect the other way counts as inactive or inconclusive; note: nearly all actives have a fitted effect of over 55% in size)
UniProt P11712, sequence (P11712 whole entry, looked up): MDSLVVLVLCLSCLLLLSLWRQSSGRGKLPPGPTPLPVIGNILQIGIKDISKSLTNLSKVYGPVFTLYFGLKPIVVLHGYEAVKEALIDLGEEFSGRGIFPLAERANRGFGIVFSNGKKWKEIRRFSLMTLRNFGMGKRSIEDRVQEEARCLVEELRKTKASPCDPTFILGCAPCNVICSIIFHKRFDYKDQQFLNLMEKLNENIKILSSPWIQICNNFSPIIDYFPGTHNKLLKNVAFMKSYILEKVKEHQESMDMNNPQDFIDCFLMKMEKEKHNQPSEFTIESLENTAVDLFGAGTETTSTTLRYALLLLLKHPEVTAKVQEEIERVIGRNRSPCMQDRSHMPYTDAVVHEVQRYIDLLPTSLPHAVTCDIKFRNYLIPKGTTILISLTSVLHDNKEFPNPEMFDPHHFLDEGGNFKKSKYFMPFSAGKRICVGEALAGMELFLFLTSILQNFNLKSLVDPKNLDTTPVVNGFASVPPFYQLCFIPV
Method in brief: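 Luminescence, after 20 min with luciferin detection reagent, reflected CYP2C9 turnover during a 1 h NADPH-driven reaction at 37C. Enzyme-substrate mix contained 0.4% bovine serum albumin and was preincubated with compound 10 min at room temperature.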

[4] = Primary qHTS for inhibitors of nuclear receptor binding SET domain protein 2 (NSD2) in an isogenic RCH-ACV NSD2 p.E1099K mutant (9B) (AID 1645876); note: nearly all actives have a fitted effect of over 70% in size
[5] = tested on: CRL-7250; test: Cytotoxic Profiling of Annotated Libraries Using Quantitative High-Throughput Screening (AID 1296008); settings: Five cell lines viability, CellTiter-Glo ATP luminescence, 48-72 h; max response: active compounds read low; note: nearly all actives have a fitted effect of over 60% in size; for max response: % is set by controls: 0 for no effect and ±100 for the full control effect
Method in brief: (§1)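 Cytotoxicity was measured as CellTiter-Glo ATP luminescence, read after 10 min at room temperature. Compound treatment of the cells lasted 48 or 72 hr at 37 degrees Celsius in a qHTS format.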

[6] = tested on: NIH3T3; test: as above; settings: Five cell lines viability, CellTiter-Glo ATP luminescence, 48-72 h; max response: active compounds read low
Method in brief: as §1

[7] = tested on: C33A; test: Primary qHTS to identify gynecologic anti-cancer compounds using libraries of approved drugs and bioactive compounds (AID 1345084); settings: Gynecologic cancer cell panel viability, ATPlite luminescence, 48 h; series mostly up to 57.5 µM; note: nearly all actives have a fitted effect of over 55% in size
Method in brief: (§2)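 Five-concentration response, 48 h; readout is ATP-driven luciferase luminescence.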

[8] = tested on: Hek293T; test: as above; settings: Gynecologic cancer cell panel viability, ATPlite luminescence, 48 h, control line for the selectivity index; activity change, negative = cytotoxicity: at 57.5 µM (top of the series) unless noted
Method in brief: as §2

[9] = tested on: OV90; test: as above; settings: Gynecologic cancer cell panel viability, ATPlite luminescence, 48 h; series mostly up to 57.5 µM
Method in brief: as §2

[10] = tested on: SKOV3; test: as above; settings: Gynecologic cancer cell panel viability, ATPlite luminescence, 48 h; series mostly up to 57.5 µM
Method in brief: as §2

[11] = Primary qHTS for inhibitors of nuclear receptor binding SET domain protein 2 (NSD2) in an RCH-ACV wild type WT cells (2C) (AID 1645877); settings: activity change, negative = cell killing: at 44.9 µM (top of the series) unless noted; note: nearly all actives have a fitted effect of over 70% in size
[12] = tested on: CASKI; test: Primary qHTS to identify gynecologic anti-cancer compounds using libraries of approved drugs and bioactive compounds (AID 1345084); settings: Gynecologic cancer cell panel viability, ATPlite luminescence, 48 h; series mostly up to 57.5 µM; note: nearly all actives have a fitted effect of over 55% in size
Method in brief: as §2

[13] = tested on: Zika virus NS2B-NS3 protease (unlinked complex); test: Primary screen GU Rhodamine qHTS for Zika virus inhibitors: Unlinked NS2B-NS3 protease assay (AID 1347159); note: nearly all actives have a fitted effect of over 60% in size; for activity change, negative = inhibition: % is set by controls: 0 for no effect and ±100 for the full control effect
Method in brief: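 Noncovalent NS2B hydrophilic domain–NS3 protease domain complex (25 nM) preincubated 15 min at room temperature with compounds (up to 114 microM) in 10 mM Tris-HCl pH 8.0, 0.01% Tween 20; 1.5 microM Rhodamine110 substrate added, fluorescence change over 15 min fitted to Hill equation.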

[14] = tested on: Zika virus NS2B-NS3 protease (linked construct); test: Primary screen NINDS Rhodamine qHTS for Zika virus inhibitors (AID 1347160); settings: activity change, negative = inhibition: at 57.1 µM (top of the series) unless noted; note: nearly all actives have a fitted effect of over 55% in size; for activity change, negative = inhibition: % is set by controls: 0 for no effect and ±100 for the full control effect
Method in brief: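 Purified linked NS2B-NS3 protease (NS2B hydrophilic domain joined to NS3 protease by flexible linker), 25 nM in 10 mM Tris-HCl pH 8.0, 0.01% Tween 20. Compounds titrated, 15 min preincubation at room temperature; 1.5 microM Rhodamine110 substrate, FITC fluorescence change over 15 min.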

[15] = tested on: CAOV3; test: Primary qHTS to identify gynecologic anti-cancer compounds using libraries of approved drugs and bioactive compounds (AID 1345084); settings: Gynecologic cancer cell panel viability, ATPlite luminescence, 48 h; activity change, negative = cytotoxicity: at 57.5 µM (top of the series); note: nearly all actives have a fitted effect of over 55% in size
Method in brief: as §2

[16] = tested on: PA-1; test: as above; settings: Gynecologic cancer cell panel viability, ATPlite luminescence, 48 h; series mostly up to 57.5 µM
Method in brief: as §2

[17] = tested on: Tov-21-G; test: as above; settings: Gynecologic cancer cell panel viability, ATPlite luminescence, 48 h; activity change, negative = cytotoxicity: at 57.5 µM (top of the series) unless noted
Method in brief: as §2

[18] = Primary fluorescence-based thiol-reactive (MSTI) qHTS assay for identification of artifact compounds. (AID 1845221);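 note: thiol-reactive compounds lower the probe fluorescence signal; nearly all actives have a fitted effect of over 65% in size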
Method in brief: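 In PBS pH 7.4 with 2% DMSO, each compound met 4 uM MSTI for one hour at ambient temperature, shielded from light, before fluorescence detection.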
Potency is the fitted concentration of half-maximal effect; tags give direction and shape of the fitted curve.

## NC1(C(=O)NC(CCO)c2ccc(Cl)cc2)CCN(c2ncnc3[nH]ccc23)CC1 (stereo unspecified)
[1]
  Potency: inconclusive: 5.17 µM [inhibitor, single point]
[2]
  Potency: inconclusive: 30.1 µM [inhibitor, single point]
[3]
  Potency: inconclusive: 7.56 µM [inhibitor, partial curve, poor fit]
[4]
  Potency: active: 0.728 µM
[5]
  Potency: inconclusive: 6.51 µM [inhibitor, partial curve, poor fit]
[6]
  outcome: inactive
[7]
  Potency: active: 2.24 µM
[8]
  Potency: inconclusive: 1.58 µM [cytotoxic, full curve]
[9]
  Potency: inconclusive: 8.91 µM [cytotoxic, partial curve]
[10]
  Potency: inconclusive: 8.91 µM [cytotoxic, full curve, poor fit]

## CCCCNc1ccc(C(=O)OCCN(CC)CC)cc1
[1]
  Potency: inconclusive: 18.4 µM [inhibitor, partial curve]
[11]
  Potency: inconclusive: 20.5 µM [inhibitor, partial curve, poor fit]
[5]
  max response: inactive: -6.06%
[6]
  Potency: inconclusive: 29.1 µM [inhibitor, single point]
[12]
  Potency: inconclusive: 39.8 µM [cytotoxic, single point]
[10]
  Potency: inconclusive: 15.8 µM [cytotoxic, single point]

## C1=C/COCc2cc(ccc2OCCN2CCCC2)Nc2nccc(n2)-c2cccc(c2)COC/1
[13]
  Potency: inactive
[14]
  Potency: inactive
[5]
  Potency: active: 6.51 µM
[6]
  Potency: active: 4.11 µM
[7]
  Potency: active: 11.2 µM
[15]
  Potency: active: 11.2 µM
[12]
  Potency: active: 3.55 µM
[8]
  Potency: active: 7.94 µM
[9]
  Potency: active: 17.8 µM
[16]
  Potency: active: 2.82 µM
[10]
  Potency: active: 8.91 µM
[17]
  Potency: active: 10 µM

## Nc1nc(N)c2nc(-c3cccc(O)c3)c(-c3cccc(O)c3)nc2n1
[1]
  Potency: active: 11.8 µM
[5]
  Potency: inconclusive: 18.7 µM [inhibitor, partial curve, poor fit]
[6]
  Potency: inconclusive: 20.9 µM [inhibitor, partial curve]

## C=C(C)C(=O)OC1CC2(C)OC(=CC2=O)C(=C)CC2OC(=O)C(COC)C12 (stereo unspecified)
[1]
  Potency: inconclusive: 20.2 µM [inhibitor, single point]
[13]
  Potency: inconclusive: 31.6 µM [inhibitor, partial curve]
[11]
  Potency: active: 1.79 µM
[18]
  Potency: inconclusive: 16.5 µM [inhibitor, partial curve]
[5]
  Potency: inconclusive: 14.3 µM [inhibitor, single point]
[6]
  Potency: inconclusive: 20.2 µM [inhibitor, single point]
[7]
  Potency: inconclusive: 22.4 µM [cytotoxic, single point]
[12]
  Potency: inconclusive: 14.1 µM [cytotoxic, partial curve, poor fit]
[8]
  Potency: inconclusive: 31.6 µM [cytotoxic, single point]
[16]
  Potency: inconclusive: 28.2 µM [cytotoxic, single point]
[10]
  Potency: inconclusive: 0.199 µM [rising, partial curve, poor fit]
[17]
  Potency: inconclusive: 14.1 µM [cytotoxic, single point]

## CNC12CC3C[C@@](C)(C1)C[C@](C)(C3)C2
[1]
  Potency: inactive
[5]
  Potency: inconclusive: 29.1 µM [inhibitor, single point]
[6]
  Potency: inconclusive: 23.1 µM [inhibitor, single point]

## O=C(CO)[C@@H](O)[C@H](O[C@@H]1O[C@H](CO)[C@H](O)[C@H](O)[C@H]1O)[C@H](O)CO
[14]
  Potency: inactive
[4]
  Potency: inactive
[5]
  Potency: inconclusive: 29.1 µM [inhibitor, single point]
[6]
  Potency: inconclusive: 18.4 µM [inhibitor, single point]
[9]
  Potency: inactive
[16]
  Potency: inactive

## CN/C(=C\[N+](=O)[O-])NCCSCc1ccc(CN(C)C)o1
[5]
  Potency: inconclusive: 33.5 µM [inhibitor, single point]
[15]
  Potency: inactive
[9]
  Potency: active: 14.1 µM
[16]
  Potency: inactive
[10]
  Potency: inconclusive: 39.8 µM [cytotoxic, single point]
[17]
  Potency: inconclusive: 39.8 µM [cytotoxic, single point]

## C[C@@H]1CC[C@]2(C)C(C[C@@H](O)[C@H](O)[C@]23CO3)[C@@]1(C)CCc1ccoc1 (stereo partly specified)
[14]
  Potency: inconclusive: 28.2 µM [inhibitor, partial curve, poor fit]
[4]
  Potency: inconclusive: 14.2 µM [inhibitor, partial curve, poor fit]
[11]
  Potency: inconclusive: 12.7 µM [inhibitor, single point]
[18]
  Potency: inactive
[5]
  outcome: inactive
[6]
  max response: inactive: -3.46%

## Nc1ncnc2c1c(-c1ccc(Cl)cc1)nn2-c1cccc(-c2cnnn2Cc2cccc(-c3ccccc3)c2)c1
[1]
  Potency: active: 16.4 µM
[4]
  Potency: inconclusive: 29.1 µM [inhibitor, single point]
[11]
  Potency: inconclusive: 29.1 µM [inhibitor, single point]
[18]
  Potency: inactive
[5]
  Potency: inconclusive: 29.1 µM [inhibitor, single point]
[6]
  Potency: inconclusive: 20.6 µM [inhibitor, single point]
[16]
  Potency: inconclusive: 31.6 µM [cytotoxic, single point]
